# Assay results reported in article PMC4336329 (PLoS ONE, 2015).
# About 14,000 (4.5%) of roughly 310,000 compounds showed an effect of 50% or more. The effect is printed as a negative number. Some of the results follow.
# Biological target: human ether-à-go-go-related gene (hERG) potassium channel (human, UniProt Q12809)
# Assay: primary screen, population patch clamp on CHO cells stably expressing hERG
# 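Also: peak tail current of the secondary pulse compared with the same well before compound.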
# Sequence of human ether-à-go-go-related gene (hERG) potassium channel (Q12809 whole entry, looked up): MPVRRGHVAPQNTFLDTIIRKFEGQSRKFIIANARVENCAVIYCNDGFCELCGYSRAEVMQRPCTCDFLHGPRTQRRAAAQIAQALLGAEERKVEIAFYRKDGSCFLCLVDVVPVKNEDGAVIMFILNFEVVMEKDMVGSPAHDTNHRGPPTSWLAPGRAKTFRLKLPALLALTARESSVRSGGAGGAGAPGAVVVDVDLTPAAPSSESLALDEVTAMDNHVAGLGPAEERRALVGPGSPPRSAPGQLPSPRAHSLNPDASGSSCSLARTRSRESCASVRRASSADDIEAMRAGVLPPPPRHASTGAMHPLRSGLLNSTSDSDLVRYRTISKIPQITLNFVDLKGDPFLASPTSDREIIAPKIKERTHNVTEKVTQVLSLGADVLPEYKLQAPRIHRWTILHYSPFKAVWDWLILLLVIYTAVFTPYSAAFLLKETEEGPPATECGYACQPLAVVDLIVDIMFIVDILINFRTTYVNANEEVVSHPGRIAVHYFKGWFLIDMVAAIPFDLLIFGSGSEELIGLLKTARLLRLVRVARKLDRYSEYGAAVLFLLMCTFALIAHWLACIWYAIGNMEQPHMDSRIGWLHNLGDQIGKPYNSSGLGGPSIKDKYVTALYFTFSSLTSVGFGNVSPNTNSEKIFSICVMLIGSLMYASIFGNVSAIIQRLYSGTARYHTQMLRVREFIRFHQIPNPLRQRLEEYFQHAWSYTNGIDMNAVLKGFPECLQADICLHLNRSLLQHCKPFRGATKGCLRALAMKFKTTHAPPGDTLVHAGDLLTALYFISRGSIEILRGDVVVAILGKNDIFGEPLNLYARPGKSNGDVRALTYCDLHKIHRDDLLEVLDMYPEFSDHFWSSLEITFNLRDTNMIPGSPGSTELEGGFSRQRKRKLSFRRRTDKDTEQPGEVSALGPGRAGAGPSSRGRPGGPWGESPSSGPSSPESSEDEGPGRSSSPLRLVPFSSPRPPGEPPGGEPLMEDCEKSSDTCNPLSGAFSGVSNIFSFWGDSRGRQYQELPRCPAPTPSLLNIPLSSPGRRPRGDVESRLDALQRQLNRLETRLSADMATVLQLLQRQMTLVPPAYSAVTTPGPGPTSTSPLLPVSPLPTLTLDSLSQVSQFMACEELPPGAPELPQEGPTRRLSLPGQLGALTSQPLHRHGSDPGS
row,Compound,"hERG current change (%, negative = inhibition) at 10uM [%]"
1,Cc1nn2c(-c3ccc(S(=O)(=O)N4CCN(CCO)CC4)o3)nnc2c2ccccc12,-6.21
2,COC(=O)c1ccccc1NC(=O)NCc1ccc2c(c1)OCO2,-11.4
3,CC(=O)Nc1ccc(S(=O)(=O)N(C)c2ccc(OCC(=O)OCC(=O)Nc3ccc(OC(F)F)cc3)cc2)cc1,-5.79
4,CCC(C)NCCOCCOc1ccc(Br)cc1.O=C(O)C(=O)O (stereo not shown),-18.1
5,COc1ccc(S(=O)(=O)N2CCCCCC2)cc1C(=O)N(C)Cc1ccc(OC)c(OC)c1OC,-41.8
6,CC(C)Oc1ccc(/C=N/NC(=O)c2nnn(-c3nonc3N)c2CN(C)c2ccccc2)cc1,5.45
7,Cc1cc2c3c([nH]c2cc1S(=O)(=O)N1CCC2(CC1)OCCO2)CCCC3=O,17.2
8,Cc1c(Br)c(C(F)(F)F)nn1CC(=O)NCC1CCCO1 (stereo not shown),-10.9
9,Cc1ccc(-c2nc3ccccc3[nH]c2=O)cc1,12.2
10,Cc1noc(C)c1S(=O)(=O)NCCCN1CCN(Cc2ccccc2)CC1,-12.4
11,CC1=NN(c2nc(-c3ccccc3)cs2)C(=O)C1N=Nc1ccccc1 (stereo not shown),7.24
12,Cc1nnc(NN)n(N)c1=O,9.23
13,Cc1ccc(/C=N/NC(=O)c2nnn(-c3nonc3N)c2-c2ccccc2)o1,11.7
14,COc1ccc(CNS(=O)(=O)c2ccc3c(c2)N(C)CCO3)cc1,-11.3
15,CCn1c(=N)n(CC(O)COc2ccc(C)cc2)c2ccccc21.Cl (stereo not shown),-70
16,CC(=O)C1=C(C)NC(=O)CC1c1ccc(F)cc1 (stereo not shown),22.7
17,COc1ccc(S(=O)(=O)NCc2cccnc2)cc1C,17.1
18,CC12CCC(C(=O)[O-])(C/C1=N\O)C2(C)C.[Na+] (stereo not shown),18.6
19,O=C(Nc1ccc2ccccc2c1)c1nn(C23CC4CC(CC(C4)C2)C3)cc1Br,7.31
20,O=C(C1CC(c2cccc(Br)c2)=NO1)N1CCc2ccccc2C1 (stereo not shown),3.06
21,CCOC(=O)c1ccc(NC(=O)NCc2ccn(CC)n2)cc1,-0.463
22,O=c1[nH]c(=O)n(C2OC(CO)C(O)C2O)cc1Br (stereo not shown),26.2

row,Compound,"hERG current change (%, negative = inhibition) at 10uM [%]"
1,Cc1cccc(NC(=S)NCCN2CCOCC2)c1C,13.9
2,O=C(c1ccc([N+](=O)[O-])cc1)N1CCSC1c1ccccc1 (stereo not shown),-39.3
3,O=C(COc1ccc(S(=O)(=O)N2CCCCC2)cc1)NC1CCCCC1,1.8
4,O=C(CS(=O)CC(=O)Nc1cccnc1)Nc1ccc(F)cc1 (stereo not shown),30.5
5,c1ccc(-c2csc(NC3=NCCCCC3)n2)cc1,-9.29
6,O=C(CSc1nnc(-c2cccnc2)n1Cc1ccco1)N1CCc2ccccc21,-47.6
7,Cc1ccc(CSc2nnc(SCC(=O)N/N=C/c3ccccc3OCC(=O)O)s2)cc1,-1.44
8,CC1(c2ccc(Cl)cc2)NC(=O)N(CC(=O)Nc2ccc(F)cc2)C1=O (stereo not shown),-5.32
9,Nc1ccc2ncccc2c1,4.28
10,COc1cc2[nH]c(=S)n(Cc3ccc(C)cc3)c(=O)c2cc1OC,12.2
11,CCN1C(=O)Cc2cc(S(=O)(=O)NCCc3ccccc3)ccc21,12.8
12,COc1ccc([N+](=O)[O-])c(S(=O)(=O)c2ccc(Cl)cc2)n1,0.869
13,CCOC(=O)C1(CCc2ccccc2)CCN(C(=O)CCc2cnccn2)CC1,-66.5
14,O=S1(=O)CCOC[C@H](c2ccccc2)N1Cc1cccc(Cl)c1,5.66
15,O=C(CN(C(=O)c1csnn1)c1ccccc1C(F)(F)F)NCc1ccccc1,16.8
16,CCC(C)(C)NC(=O)Nc1cc(Cl)ccc1OC,12
17,CC1=C(C(=O)Nc2ccc(C(=O)NC(C)c3ccccc3)cc2)SCCO1 (stereo not shown),11.9
18,COc1cc(/C=C(\C#N)c2nc3ccccc3[nH]2)cc(Br)c1OCc1ccc(F)cc1,-1.54
19,COC(=O)c1ccccc1NC(=S)NC(=O)c1ccccc1,10.2
20,CCOc1ccc(N(C(=O)c2ccc(S(=O)(=O)N3CCCC3)cc2)C2C=CS(=O)(=O)C2)cc1 (stereo not shown),-51.9
21,CCN(CC)S(=O)(=O)c1ccc(N2CCOCC2)c(NC(=O)c2ccccc2F)c1,-15.8
22,CCOC(=O)N1CCN(CC(O)COCc2cc(OC)c(OC)c(OC)c2)CC1.Cl (stereo not shown),23.5

row,Compound,"hERG current change (%, negative = inhibition) at 10uM [%]"
1,CCCn1cc(CN2CCN(Cc3ccc(C)o3)C(CCO)C2)c(C)n1 (stereo not shown),9.1
2,COC(=O)CCC(NS(=O)(=O)OCC(Cl)(Cl)Cl)c1ccccc1 (stereo not shown),-14.3
3,COc1cc(/C=C/c2ccc3cccc(O)c3n2)ccc1O,-0.305
4,Cc1cc(C)nc(Nc2n[nH]c(-c3ccc(C(C)(C)C)cc3)n2)n1,17.9
5,CCOC(=O)C1=C(C)N=C2SC(C(=O)OC)=CC(=O)N2C1c1cccc(OC)c1 (stereo not shown),-3.16
6,Cn1c(=O)c2cc(S(=O)(=O)Nc3cc(C(=O)O)cc(C(=O)O)c3)ccc2n(C)c1=O,21
7,COc1cccc(C(=O)N(c2ccccc2)C2C=CS(=O)(=O)C2)c1 (stereo not shown),7.58
8,O=C(CC(Sc1ccc(Br)cc1)C(=O)O)c1ccc(Br)cc1 (stereo not shown),1.74
9,CCCCNc1nc2sc3c(c2c(=O)n1-c1cccc(Cl)c1)CCN(C)C3,-0.439
10,Cc1ccc(C(=O)N2CCCC(CCC(=O)N3CCN(c4ccccn4)CC3)C2)cn1 (stereo not shown),-11.1
11,O=S(=O)(NCCNS(=O)(=O)c1ccccc1)c1ccccc1,-4.94
12,Cc1sc(-c2ccccn2)nc1OC(=O)c1cccc(Cl)c1Cl,5.12
13,Cc1cc([N+](=O)[O-])nn1CC(=O)N(C)C1CCCCC1,-18.6
14,Cc1cc(C)n(CCOc2ccc(Cl)cc2Cl)n1,13.8
15,NCCCC[C@@H]1NC(=O)c2cc([N+](=O)[O-])cc(F)c2NCCCC[C@@H](C(N)=O)NC(=O)CNC1=O,17.5
16,CCN(C(=O)CSc1nnc(CNc2cccc(OC)c2)n1C1CCCCC1)C1CCS(=O)(=O)C1 (stereo not shown),-1.42
17,COc1ccc(C(CC(=O)O)NS(=O)(=O)c2ccc(C)cc2)cc1OC (stereo not shown),12.4
18,Cc1cc(C)cc(NC(=O)c2cccc(NC(=O)C3C4CC5OC(=O)C3C5C4)c2)c1 (stereo not shown),-46.3
19,O=C(Nc1ncccc1O)c1ccc(S(=O)(=O)Nc2ccccc2)cc1,12.4
20,O=C(O)c1cc(/C=N\O)ccc1OCc1ccccc1,11.4
21,COc1cccc(CNC(=O)CN2C(=O)NC(Cc3ccccc3)(c3ccccc3)C2=O)c1 (stereo not shown),-17.5
22,CS(=O)(=O)c1ccc(Cl)c(NC(=O)C2CCN(S(=O)(=O)c3cccs3)CC2)c1,-29.3

row,Compound,"hERG current change (%, negative = inhibition) at 10uM [%]"
1,CC(C)c1ccc(NC(=O)COC(=O)CCC(=O)c2cccs2)cc1,13.7
2,O=c1c2[nH]cnc2n(-c2ccccc2)c(=O)n1Cc1ccccc1,2.02
3,CCc1cccc(NC(=O)C2CCCN2S(=O)(=O)c2cccc3cccnc23)c1 (stereo not shown),-10.4
4,CCOC(=O)c1nn(-c2ccccc2)c2nc(-c3ccc(OC)cc3)c(C#N)c(=O)n12,11.3
5,COc1ccc(OC)c(-c2cc(C(=O)Nc3cc(C)on3)no2)c1,21.1
6,O=S(=O)(c1ccc(O)cc1)c1ccc(O)cc1,16.9
7,CN1C(=O)C(=O)/C(=C(/O)c2ccccc2)C1c1ccc([N+](=O)[O-])cc1 (stereo not shown),30.5
8,Cc1ccc(-c2c[n+](CC(=O)Nc3nc(-c4ccc(F)cc4)cs3)c3n2CCC3)cc1.[Cl-],-74.2
9,Cn1c(=O)n(C/C=C/c2ccccc2)c(=O)c2c1nc1n2CCCN1c1ccc(F)cc1,9.54
10,COc1ccccc1C(=O)NCC(=O)OCC(=O)Nc1nnc(-c2ccccc2)o1,9.88
11,CCN(CC(=O)Nc1ccc(NC(C)=O)cc1)C(=O)C1(c2ccccc2)CC1,1.62
12,COC(=O)C1=C(c2ccc(F)cc2F)C[C@@H]2CC[C@H]1N2C(=O)NC(C)C,9.97
13,Cc1ccc(S(=O)(=O)N2CCC(C(=O)N/N=C/c3ccncc3)CC2)cc1,-36.2
14,COc1cccc(C2CC(C(F)(F)F)n3ncc(C(=O)NCC4CCCO4)c3N2)c1 (stereo not shown),-11.8
15,O=C(CN1C(=O)C2C3C=CC(C3)C2C1=O)Nc1ccc(S(=O)(=O)Nc2nccs2)cc1 (stereo not shown),11.3
16,Cc1ccc2ncnc(Nc3cccc(C(=O)O)c3)c2c1.Cl,8.73
17,COc1cccc(OC)c1C(=O)Nc1sc2c(c1C(N)=O)CCCC2,-1.2
18,CCOC(=O)C1=NN(c2ccc([N+](=O)[O-])cc2)CC1C(=O)OC (stereo not shown),-23.6
19,CCOC(=O)c1c(NC(=O)CN2CCCCC2)sc2c1CCC(C=O)=C2Cl,18.5
